# From PMC6212790
# The list shows a part of the results. At the low end of the ranking the order means little.
# Target: T1, GST-Rok (full length) (UniProt O34857)
# T1 sequence: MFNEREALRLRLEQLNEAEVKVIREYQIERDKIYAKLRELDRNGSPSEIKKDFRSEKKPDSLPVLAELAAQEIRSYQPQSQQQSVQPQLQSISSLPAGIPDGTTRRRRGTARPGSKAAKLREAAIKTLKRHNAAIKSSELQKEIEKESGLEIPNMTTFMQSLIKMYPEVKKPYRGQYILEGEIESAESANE
# Assay: protein binding microarray;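 note: rank score from −0.5 (least bound) to 0.5 (best bound)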
# Conditions: Rok is a gene silencer of Bacillus subtilis; high values mean tight binding; most listed sequences are background and not binding sites; double strand, one strand shown
row,Sequence,binding signal [E-score]
1,ACTGCCGG,-0.104
2,GGGTAGGA,-0.09
3,ACTACTGA,0.323
4,GTAATAAC,0.0644
5,GAAGGGAC,-0.372
6,GTCTGGAA,-0.0952
7,CGGCTGAG,-0.0154
8,ACAATGGC,0.0616
9,TAACCCGA,-0.0517
10,GATGTATA,0.33
11,CGGAATTA,0.239
12,CAGTTTGG,0.0137
13,GGTTCGAC,-0.107
14,AATAGAGG,-0.128
15,AGCCTCGC,-0.233
16,ATCAACTG,-0.0213
17,CTTGACAC,-0.068
18,CCTCTCCC,-0.444
19,AAAGCGTT,-0.197
20,ACGGAAGC,-0.348
21,TCGGCACA,-0.128
22,AACAAGGC,-0.192
23,AAATTATG,0.215
24,GATGAGAC,-0.273
25,AAATAAGC,-0.0238

row,Sequence,binding signal [E-score]
1,CCCCTCTA,-0.271
2,ACTAAGAC,-0.0146
3,GCTAATGA,-0.0686
4,CTCTTTTC,-0.0791
5,AACTCTTG,-0.0712
6,ACGATCCT,0.00571
7,ATCCGGCG,-0.0839
8,CCCTAGCG,-0.256
9,GCCTAGAC,-0.293
10,ATGCGTTC,0.0859
11,CAAAATTA,0.204
12,GCATAAAA,0.251
13,ATCCTTTG,0.00052
14,TGACAGAA,-0.111
15,CCGTGGAC,-0.293
16,ACAGATAT,0.153
17,CAACCAGA,-0.199
18,ATCACGAC,-0.0777
19,GAGCCACA,-0.148
20,AACGCTGC,-0.118
21,GACGCCCC,-0.368
22,TCAGTGCA,-0.111
23,ATGCAGAC,-0.141
24,AAACCGTT,0.0137
25,ATCGTAAC,0.238

row,Sequence,binding signal [E-score]
1,AAGCTTAG,0.00608
2,AGCAACAA,0.0506
3,CCAGCAAC,0.0306
4,CAATGCCC,-0.155
5,GTGGAATA,0.0844
6,AAAGGACA,-0.0521
7,ATTAAAAC,0.167
8,AATTCGGA,0.166
9,AAGCGCCT,-0.0876
10,CGGAGCGA,-0.225
11,CCTCGGAC,-0.104
12,ATGTACAT,0.409
13,CGGAGGTC,-0.295
14,GGCGAGGA,-0.31
15,GAACGGGA,-0.0892
16,CTCTCGAC,-0.113
17,CAGTGCAC,-0.0944
18,ATGAGACA,0.00283
19,CACATCTC,0.0106
20,AACCCGAG,-0.141
21,CCCTGGCG,-0.337
22,ATAGTTCG,0.299
23,CCGCAGAC,-0.181
24,AAATGCAC,-0.0384
25,CCAAAGAA,-0.0233

row,Sequence,binding signal [E-score]
1,CTATCGAC,0.0997
2,AGCCTGCA,-0.136
3,CATACTAC,0.376
4,ACATTACT,0.305
5,CTGATGCC,-0.239
6,AAGAATGA,0.18
7,ACGGTCAT,0.0717
8,AGCTCATG,-0.0852
9,CATGCCAA,-0.0955
10,GGTACACA,0.0609
11,ACGGCCGT,-0.181
12,GTTATATA,0.296
13,GAAATGGA,-0.0107
14,GCACGTCC,-0.0724
15,GCATTCAA,-0.000228
16,AAGTAATA,0.275
17,ATGTCCCC,-0.322
18,AAAAGGAA,-0.0367
19,AATTAGCC,0.0506
20,ACAAGACC,-0.199
21,CCAACTGG,-0.154
22,GACGTAGA,0.0633
23,ATAGGCGC,-0.036
24,GACCCTTA,-0.105
25,AAAGCCTC,-0.244

row,Sequence,binding signal [E-score]
1,GAGATACC,-0.0348
2,AGGAAACC,-0.254
3,AGTAGGAT,0.334
4,AAAGGCAG,-0.214
5,AGTCTGAA,-0.126
6,CCTATCTC,0.168
7,AGTGCGAG,-0.162
8,CACCCTCC,-0.16
9,CGCAACCA,-0.0956
10,CGTTTCAC,-0.313
11,AGTCGTAT,0.0627
12,AACTCTTC,-0.0814
13,AGCGTGTC,-0.0558
14,AGCAGTGC,-0.162
15,CACATCTA,0.268
16,CCAGCTGC,-0.043
17,ATACACGC,0.202
18,AAGGATAC,0.0607
19,AGTACTGC,0.114
20,AAACTGCA,0.0886
21,CACGGGAC,-0.343
22,GTAGAATA,0.292
23,CAGAATAG,0.106
24,AGGGAGAT,-0.221
25,CAAGTTAA,0.0371

row,Sequence,binding signal [E-score]
1,AGTATTAG,0.333
2,GAACGGCA,-0.144
3,ACCTCTCC,-0.175
4,ACAGTCCC,-0.217
5,AGTAAGAG,-0.132
6,GACCATCC,-0.0513
7,CACAGTCG,-0.000742
8,CCCCAATC,-0.325
9,ATATTACG,0.281
10,GTCAATCA,-0.0178
11,CCAAGTTC,-0.0498
12,ACTAATTG,0.184
13,ACATACTG,0.141
14,AAAGCGTG,-0.163
15,ACGCGCTG,-0.0959
16,AAGCGGAG,-0.128
17,CCATCAGG,-0.101
18,GTGCGTAA,0.0292
19,GAGGATAC,-0.124
20,GATTAACC,-0.0693
21,ACAGCTAT,0.15
22,CCGGGCCA,-0.318
23,GGGCGACA,-0.251
24,CCCCGTTA,-0.249
25,ATTATGTG,0.185

row,Sequence,binding signal [E-score]
1,CCATGGGC,-0.327
2,AAGAGGAG,-0.246
3,GGAGACTA,-0.0693
4,GCCCATTA,-0.106
5,CGGATCCC,-0.231
6,CCGCAGAA,-0.0699
7,CAGGCTGC,-0.0469
8,ATTTGGGA,-0.131
9,ATAGATTC,0.374
10,AAGGCACC,-0.198
11,TGTGAGAA,0.216
12,GTTGTACA,0.223
13,CCCTGTCC,-0.0807
14,CCTCGTTA,-0.0836
15,CCGATTAG,-0.0942
16,AGCAAAGG,-0.203
17,GGTGGGCA,-0.165
18,ATGCTATG,0.0577
19,CGTATCTC,0.184
20,GAGCTGGC,-0.148
21,CGCGTGGC,-0.208
22,CAACCACA,0.0291
